120 sequences from the supplement of paper PMC10126150 can be followed below.

The subject of this data set is ATP. The data set can be described thus: switch fluorescence ratio, 500 uM ATP over buffer (Cy3 cluster intensity, sum of 5 cycles each) (fold (ratio)); higher = stronger signal-on switching upon ATP binding; sequences stand for … in TCGTCGGCAGCGTCAGATGTGTATAAGAGACAGTTTTTTTTTTTTTTTTTTTTTTTTT…TC. The following applies: aptamer strand: ATP DNA aptamer (quencher-CACCTGGGGGAGTATTGCGGAGGAAGG + anchor), 100 nM annealed; ATP concentration: 500 uM; one replicate. In outline: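 The quencher-labelled ATP aptamer, at 100 nM, was annealed to Cy3-labelled switching-strand clusters on a modified Illumina MiSeq flow-cell. The clusters were imaged in selection buffer, then after 15 min with 500 uM ATP at 22 °C, and this buffer/ATP cycle ran five times with NaOH stripping and re-annealing between runs. Per-cluster fluorescence ratios, summed target-cycle over summed buffer-cycle Cy3 intensity, were averaged per switch-domain sequence. Clusters outside 100-1000 RFU were excluded.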

Sequences with one replicate were seen in a single cluster, so their values are uncertain.
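Also: ATP exposure 15 min at 22 °C before imaging.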

For ATTTACTTAT, the switch fluorescence ratio came out at 1.14.

GCAAGGAAAA: the switch fluorescence ratio was 1.03. Then CAATCTTCTG, with 1.12. As for GTGTTGATAC, the switch fluorescence ratio was determined as 1.09. With TCTGATAATA, the switch fluorescence ratio is 1.01. Then GGCGGACGTG, with 0.961. Then ATTAACTGAG, with 1.04; and GAAATAGAGG, with 0.998; and TCTATTGTAG, with 1.01. Then AAGTAGACTC, with 1.35.

In the case of GGAGGCCAAG, the switch fluorescence ratio was 0.976. Then CCCACTGTCT, with 1.01; and AGGGGTTCTC, with 1.05; and GGAAAATTGC, with 1.01.

In the case of ACGCATTAAT, the switch fluorescence ratio is 1.19. Then GACGCCGTG, with 1.01. Consider ATAATGATTA, for which the switch fluorescence ratio was 1. Then CTCCTTGAAT, with 1.05.

With CCGGCTATGA, the switch fluorescence ratio was 1.3. As for AAGCTCCCTG, the switch fluorescence ratio was determined as 1.04. On to CTAGATTT, for which the switch fluorescence ratio came out at 0.976. Then TGGCTTCCGG, with 1.14. Consider ACTAGCATTT, for which the switch fluorescence ratio stood at 1.02. In the case of GGGTGCATTC, the switch fluorescence ratio turned out to be 1.11.

CATGGGCTTA: the switch fluorescence ratio is 0.997.

For the sequence AGAGCATAAG, the switch fluorescence ratio was 1.04. Then TTTACACATA, with 1.1. Then GTTTTCGCTC, with 1.04; and TGGTGTATCA, with 0.988; and TATATTGTCC, with 1.05.

TCGGTTTCC: the switch fluorescence ratio came out at 0.943.

TTTTTGTCC: the switch fluorescence ratio stood at 0.975. Then AAGAAGACG, with 0.985; and ATTACAATTG, with 1.01.

For the sequence AACAAACAGG, the switch fluorescence ratio worked out at 1.1. Then CTATGGCCCC, with 0.967; and AATGGGGCAC, with 0.955; and AATTTAGAGG, with 1.04.

As to TACACGATGG, the switch fluorescence ratio came out at 1.09. On to ATGCGGGCAC, for which the switch fluorescence ratio was 1.02. Then CCAATATTTG, with 0.942; and ATCGCACCGT, with 1.06. Then GGCCACTAAG, with 1.05. Then ATCATAATGC, with 1.04. For CCGGGGCCAT, the switch fluorescence ratio was found to be 1.26. Then CGAGAAGAAA, with 0.944.

Regarding TTTTAAGTCA, the switch fluorescence ratio came out at 0.97. Then ACTATTTATG, with 1.02; and GGCCCTGTAC, with 1.16; and TATGACAGAT, with 0.971. Then TAGCGAGGAA, with 0.971; and ATGTCGGA, with 1.03; and TTTCCGGAAA, with 0.976. Then GGTGTGTCTT, with 0.983; and TGCTGCTTCG, with 0.98; and GGTGCCCGCC, with 1.04. As to CTAGTGTTTT, the switch fluorescence ratio was found to be 1.04. Then TCGAATCTAG, with 1.04; and CGGAAGAGAT, with 0.985; and ATGGGCAGCG, with 0.953. Turning to CTCTGAAAAG, the switch fluorescence ratio is 1. On to CTACAAGCGT, for which the switch fluorescence ratio stood at 0.963. Take TCCGAAGGTG: the switch fluorescence ratio came out at 1.07.

Consider TCCCGCAAGG, for which the switch fluorescence ratio is 2.66. Then AATGAGGATT, with 1; and CAATCGTCGG, with 0.959; and CATGCAGGGC, with 1.11. For ACGTATATCT, the switch fluorescence ratio came to 1.16. Regarding AGCTACCGCT, the switch fluorescence ratio came to 0.951. TCGGGAGGAA: the switch fluorescence ratio amounted to 1.02.

Regarding ATTAAACCTT, the switch fluorescence ratio was found to be 1.1. Then ACGACGCGCC, with 5.33. In the case of GAAAGTCAAC, the switch fluorescence ratio turned out to be 1.02. Then TCACTCGGGG, with 0.961; and CTATTCTCGA, with 0.975; and GTCCAGTCAT, with 1.03.

Take TCTTCGGTGC: the switch fluorescence ratio came out at 1.25. Then AGGTACCTG, with 1.07; and ATAGGGGCAA, with 1.11. Then CGGGAGTCGT, with 1.02; and GCAATGGGTT, with 1.02. Consider GTTTTGCGCC, for which the switch fluorescence ratio is 1.03.

For the sequence CATGTAAACC, the switch fluorescence ratio turned out to be 1.01. Then GGCAACAATC, with 1.01. TGGCAATCGG: the switch fluorescence ratio was 1.08.

Regarding CTAAAGCTTG, the switch fluorescence ratio stood at 0.965.

Take ATACGATGGA: the switch fluorescence ratio was 0.979.

In the case of CGCGACGGGC, the switch fluorescence ratio was 1.07. Then TATGCTTTAG, with 0.947; and GATTAACATT, with 1.05. Then TTCCGACTAA, with 2.42; and ATGTTGGTGG, with 0.968. Then ATTGACTCAA, with 0.965. For GGTTAACGTG, the switch fluorescence ratio was 1.01. Then CTTTTCCAAC, with 1.22.

As for TGACTAGAGC, the switch fluorescence ratio is 0.956.

With GCTCCTGTCA, the switch fluorescence ratio turned out to be 1.07.

Regarding CTTAATCGGT, the switch fluorescence ratio came to 1.02.

With CTGCAAGGAA, the switch fluorescence ratio was 1.

As for CTTCGACTGT, the switch fluorescence ratio was 1.01.

As for CGGCAGGCAT, the switch fluorescence ratio came out at 1.01. Then TACAACAAAA, with 1.07; and TCCTTCGGC, with 1.85; and CCGATGGGCG, with 1.1. Then CTATTACAGC, with 1.09; and GACAGTCTGA, with 0.992; and CCTAGTCGAT, with 1.13. With TGAAGAAGTC, the switch fluorescence ratio is 0.963.

As to CGGAGGCGCT, the switch fluorescence ratio came to 1.01.

For the sequence TAAGTGTGAG, the switch fluorescence ratio came out at 0.969.

Take TATAGCTGCC: the switch fluorescence ratio is 1.19.

For GATATAACTT, the switch fluorescence ratio amounted to 1.01. Then ATTTGACAG, with 1.11. With TTACGGAACC, the switch fluorescence ratio was 1.31. Then CATGCAACGG, with 1.07. Then CTTGAAGCAT, with 1.09. Then GTGTACCTTC, with 1.34; and TTACGACCTG, with 1.02. GCGAACCTCA: the switch fluorescence ratio was determined as 1.1. Consider AGAAAGCATC, for which the switch fluorescence ratio was 0.982.
